# From US6573282B1 (priority 1995, dated 2003)
# Counter-ions that a name gives are not always drawn.
# Key:
# [1] = tested on: tape stripping induced hyperalgesia
# [2] = tested on: FCA-induced hyperalgesia
# [3] = tested on: inflamed knee joint; details: naloxone alone
smiles,measurement,setting,value
CN(C)C(=O)C(CCN1CCC(O)(c2ccc(Cl)cc2)CC1)(c1ccccc1)c1ccccc1 [Ioperamide],Tape Stripping-Induced Inflammation % Maximal Efficacy,[1]; intrapaw,80%
same,Tape Stripping-Induced Inflammation ED50,[1]; intrapaw,71 μg i. paw
"CN(C)C(=O)C(CCN1CCC(O)(c2ccc(Cl)cc2)CC1)(c1ccccc1)c1ccccc1 [loperamide, 4-(p-chlorophenyl)-4-hydroxy-N-N-dimethyl-α,α-diphenyl-1-piperidinebutyramide hydrochloride]",antinociception in the uninflamed paw,[2]; at up to 300 μg,No antinociception
same,"ED50, antihyperalgesia (paw pressure threshold)","[2]; i.pl. 24 hours after FCA, evaluated at 2 hours following injection",20 µg
same,antinociception (paw pressure threshold),"[1]; 100 μg i.paw, at 15 min, 30 min, and 1 hour following injection",Antinociception was observed
same,"ED50, antagonism of tape stripping induced hyperalgesia","[1]; measured at 15 min after intrapaw injection, 24 hours following tape stripping",72 µg
"C=CCN1CC[C@]23c4c5ccc(O)c4O[C@H]2C(=O)CC[C@@]3(O)[C@H]1C5 [naloxone, naloxone HCl]",effect upon compression-evoked change in BP,[3],without effect
